From article PMC7452241 (iScience, 2020)

Target: T1, His6-SHIP1 Y190F (UniProt Q9ES52 1-1191, Y190F)
T1 sequence (looked up): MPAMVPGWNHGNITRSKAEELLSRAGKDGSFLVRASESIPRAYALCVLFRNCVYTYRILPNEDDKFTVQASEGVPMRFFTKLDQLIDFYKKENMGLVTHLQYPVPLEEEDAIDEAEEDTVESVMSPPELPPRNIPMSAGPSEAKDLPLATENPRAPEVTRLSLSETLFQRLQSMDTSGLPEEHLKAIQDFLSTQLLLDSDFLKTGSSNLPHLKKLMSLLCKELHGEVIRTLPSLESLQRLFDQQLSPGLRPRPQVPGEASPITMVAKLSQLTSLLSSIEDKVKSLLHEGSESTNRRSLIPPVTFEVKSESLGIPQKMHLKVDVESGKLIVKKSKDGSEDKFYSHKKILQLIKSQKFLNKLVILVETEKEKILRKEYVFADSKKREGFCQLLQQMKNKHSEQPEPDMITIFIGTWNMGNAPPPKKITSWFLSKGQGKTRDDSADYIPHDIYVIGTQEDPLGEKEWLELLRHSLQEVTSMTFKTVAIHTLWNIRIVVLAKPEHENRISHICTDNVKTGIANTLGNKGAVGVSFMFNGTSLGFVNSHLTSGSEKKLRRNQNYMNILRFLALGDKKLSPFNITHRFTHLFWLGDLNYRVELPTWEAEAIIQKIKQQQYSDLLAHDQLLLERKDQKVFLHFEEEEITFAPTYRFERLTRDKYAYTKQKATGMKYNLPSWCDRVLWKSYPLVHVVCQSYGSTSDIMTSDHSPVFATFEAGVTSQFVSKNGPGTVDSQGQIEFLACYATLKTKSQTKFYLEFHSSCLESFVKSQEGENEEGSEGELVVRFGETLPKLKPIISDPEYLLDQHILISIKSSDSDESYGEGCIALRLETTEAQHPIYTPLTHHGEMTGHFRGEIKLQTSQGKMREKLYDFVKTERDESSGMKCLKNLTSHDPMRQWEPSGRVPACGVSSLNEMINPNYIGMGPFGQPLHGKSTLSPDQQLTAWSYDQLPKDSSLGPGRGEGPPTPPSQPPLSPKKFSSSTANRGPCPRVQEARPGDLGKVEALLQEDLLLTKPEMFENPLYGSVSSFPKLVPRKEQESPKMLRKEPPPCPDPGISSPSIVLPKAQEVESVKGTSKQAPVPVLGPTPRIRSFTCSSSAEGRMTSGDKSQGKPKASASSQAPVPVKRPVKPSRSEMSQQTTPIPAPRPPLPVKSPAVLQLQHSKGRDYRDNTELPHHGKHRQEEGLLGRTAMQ
Assay: pull-down

- fold reduction of the interaction with STAT3 against wild-type SHIP1: 2 fold
B1: STAT3 (natural protein)
chain: not shown
